# Assay results published in the supplement of paper PMC10441789.
# The list shows a part of the results. Antibody binding of pooled human sera (four to six donors per pool; dilution not stated) to peptides of the Trypanosoma cruzi antigen TSSA on microarrays. Quantile-normalised fluorescence in arbitrary units, mean of duplicate arrays; higher = more binding. No active / inactive call. The uninfected pools are read here as the healthy donors of the same country. The strongest signals lie near the top of the scale (about 60,000).
# Tests used:
# Assay in all cases: antibody binding signal (normalised fluorescence) (arbitrary fluorescence units); higher = stronger serum antibody binding to peptide
# [1] = system: pooled sera of chronic Chagas disease patients, Argentina
# Experimental: (§1)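 Microarray of 15-residue peptides over residues 30-55 of Trypanosoma cruzi TSSAII, each with 1 to 10 substitutions at naturally variable positions, probed with one serum pool per country.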
# [2] = system: pooled sera of chronic Chagas disease patients, Bolivia
# Experimental: as §1
# [3] = system: pooled sera of chronic Chagas disease patients, Brazil
# Experimental: as §1
# [4] = system: pooled sera of chronic Chagas disease patients, Colombia
# Experimental: as §1
# [5] = system: pooled sera of chronic Chagas disease patients, Mexico
# Experimental: as §1
# [6] = system: pooled sera of chronic Chagas disease patients, USA
# Experimental: as §1
# [7] = system: pooled sera of uninfected people, Argentina
# Experimental: as §1
# [8] = system: pooled sera of uninfected people, Bolivia
# Experimental: as §1
# [9] = system: pooled sera of uninfected people, Brazil
# Experimental: as §1
# [10] = system: pooled sera of uninfected people, Colombia
# Experimental: as §1
# [11] = system: pooled sera of uninfected people, Mexico
# Experimental: as §1
# [12] = system: pooled sera of uninfected people, USA
# Experimental: as §1
Sequence,antibody binding signal [1],antibody binding signal [2],antibody binding signal [3],antibody binding signal [4],antibody binding signal [5],antibody binding signal [6],antibody binding signal [7],antibody binding signal [8],antibody binding signal [9],antibody binding signal [10],antibody binding signal [11],antibody binding signal [12]
KDKKTATGGTPSQPG,318,256,222,1280,212,1050,359,72.8,129,107,397,70.5
KKTATGEAPSPPGAS,2370,5040,6310,200,157,12700,314,265,95.5,140,88.8,431
SGKENKAATGEAPSQ,24400,28600,37500,2660,2370,23400,8510,3800,120,526,456,215
DNKPAAGEAPSQPGA,9070,29300,44900,322,193,18500,128,232,330,167,308,107
KKPAAGETPSPSGAS,211,217,1210,149,184,817,354,252,123,124,74.5,751
TPPSGKENKTATGET,21900,10600,3290,546,2970,2480,1010,1110,216,768,176,178
GTDKKPATGGAPSQP,1480,1130,17700,6290,2570,1700,296,776,174,163,667,214
KPATGGTPSPPGASS,534,362,266,274,365,217,227,643,232,259,160,207
GKEKKPAAGGTPSPP,1360,240,228,2420,968,1450,96.9,85.5,449,134,75.1,288
GKDNKTATGETPSQS,4480,1770,6500,8420,6450,8970,343,331,183,342,126,166
SGTDNKAATGETPSQ,3860,5480,42800,210,300,12600,106,637,1300,122,146,162
NKTATGEAPSQSGAS,6940,35400,26100,140,405,23100,462,701,364,268,235,915
SGKEKKPAAGETPSP,10100,1920,6600,4510,8760,6390,281,362,110,148,92.1,349
EKKPAAGETPSPSGA,2330,579,2160,481,312,2650,172,745,264,197,321,1140
EKKAATGETPSPSGA,2030,1260,10000,351,374,11000,704,837,140,896,289,1930
TENKTATGGTPSQSG,18000,1270,489,427,476,385,444,191,300,148,907,183
TDKKPATGEAPSQPG,41300,47700,48000,363,281,38200,821,631,327,216,234,141
EKKPAAGEAPSPSGA,1210,325,11200,583,259,13900,214,913,200,86.3,250,793
SGKDKKAATGETPSQ,1120,256,8700,570,591,8340,246,104,99.4,345,81.3,104
GTENKPATGETPSQP,45000,37400,44400,507,1570,25300,483,1030,640,160,1870,193
GKEKKTATGETPSQS,5340,536,1700,4190,5930,7900,182,114,104,81.4,87.2,101
TDKKTATGEAPSPPG,9300,20400,12700,214,297,18800,170,95.3,199,94.5,119,123
KEKKPATGGTPSQPG,327,276,449,515,182,296,216,104,323,111,103,614
GKENKTAAGGAPSPS,612,204,1940,3970,1550,6100,448,108,120,114,116,125
DKKPATGEAPSPSGA,48400,43600,47700,211,228,44300,956,682,290,267,219,211

Sequence,antibody binding signal [1],antibody binding signal [2],antibody binding signal [3],antibody binding signal [4],antibody binding signal [5],antibody binding signal [6],antibody binding signal [7],antibody binding signal [8],antibody binding signal [9],antibody binding signal [10],antibody binding signal [11],antibody binding signal [12]
GTDKKTAAGGAPSQP,221,292,621,6430,587,538,172,156,144,171,112,113
GKENKTAAGETPSPS,8960,1730,11700,15100,10500,17200,658,211,149,181,318,1450
PPSGKDKKPAAGEAP,1450,1030,1330,884,42600,8400,386,570,133,262,79.1,135
TDNKTAAGGTPSPPG,1180,221,237,3980,290,1270,203,347,933,315,1200,155
GTENKTAAGGAPSQS,27500,626,763,5190,1150,666,440,370,742,310,506,176
SGKDNKTATGETPSP,445,929,1670,1900,334,6570,286,291,188,353,161,656
STPPSGTENKPAAGE,50000,47400,50400,272,7130,44700,8920,1040,365,518,526,517
GTEKKAATGEAPSPS,24800,32700,26400,1150,1890,25100,582,823,161,586,136,203
GKEKKAAAGETPSQS,2210,281,633,1820,3430,3260,110,107,87.2,115,94.9,98.5
GKDKKPAAGGTPSQP,269,199,242,1620,543,586,147,99.9,1020,144,133,89.4
TDNKAAAGEAPSPPG,857,395,22200,190,147,12300,104,183,151,80.9,77.6,90.7
KENKAATGGTPSPSG,317,277,277,180,242,238,158,105,291,103,85.6,140
PSGTDKKAAAGETPS,2600,540,6980,6950,2200,2240,239,545,233,1030,1700,236
TEKKTATGETPSPPG,648,579,1330,350,433,7330,267,248,316,145,172,1400
GTEKKPATGETPSQS,30900,18600,31400,1590,2280,22700,220,1150,1250,388,1850,803
KEKKTATGEAPSQPG,7700,11500,29900,298,324,13500,177,82.1,117,84.5,117,132
TEKKAATGEAPSQPG,25900,37600,44700,403,682,26500,655,145,315,705,267,281
SSTPPSGKDNKTATG,9110,1880,5550,2220,19100,3150,402,321,166,226,130,377
GTDKKAAAGGAPSQP,217,251,1560,4960,526,421,176,209,126,98.8,120,141
KENKPAAGGAPSPSG,191,192,1600,738,370,558,225,143,141,115,101,204
TEKKTAAGETPSPPG,669,289,396,511,414,3070,136,212,212,633,233,991
GTDKKPAAGEAPSQP,6760,16400,38600,6960,510,15100,140,260,173,139,583,166
PPSGKEKKAATGGAP,1800,323,1830,1930,3140,3440,401,373,96.2,338,89.4,176
SGKDNKAATGGAPSP,1050,348,720,1830,1250,1920,276,212,112,286,103,114
PPSGTDNKTAAGETP,19700,27500,42500,478,841,4050,382,641,1060,275,184,253
